Assay results taken from PubChem BioAssay AID1671193 (National Center for Advancing Translational Sciences (NCATS), 2021).
Where “and” joins values, the source holds several entries; their conditions need not be identical. Equal values may be shown once. The whole screen tested about 150,000 compounds, of which about 180 (0.12%) were called active. Inconclusive results, whose numbers are uncertain, are shown with a selection of clear calls. The call rests on the fitted dose curve; in most records, active means well fitted cell-killing curve with a large enough effect; inconclusive means small, poorly fitted or top-dose-only effect, or effect the other way; inactive means flat fitted curve, though single readings scatter. A potency beside an inconclusive call is a rough fit, not a confirmed value.

Assay: GF-AFC viability counterscreen for inhibitors of alpha-synuclein gene (SNCA) expression; further: nearly all actives have a fitted effect of over 30% in size
Details: HEK-293-SNCA-luc viability, GF-AFC fluorescence, 24 h; series mostly up to 57.1 µM
Method in brief: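 HEK-293-SNCA-luc cells (1500/well) plated 24 h, then exposed 24 h to a dilution series; GF-AFC added 30 min at 37C, fluorescence 405/540 nm; normalised to medium-only and DMSO wells, Hill fit.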
Potency means the concentration at half of the fitted maximal effect; tags describe the fitted curve by direction and shape.

Q: With COC(=O)/C=C\C(=O)OC as the compound, how does the Potency read?
A: inactive

Q: For O=C(NCc1ccc(F)cc1)c1noc(-c2ccc3c(c2)OCO3)n1, which Potency is on record?
A: inactive

Q: For Cc1cccc(C(=O)Nc2ccc(-c3nc4ccccc4s3)cc2Cl)c1, which Potency is on record?
A: inactive

Q: For CC(C)Cn1nc2n(c1=O)CCN(S(=O)(=O)Cc1ccccc1)CC2, which Potency is on record?
A: inconclusive: 1.26 µM [rising, full curve, poor fit]

Q: With CCN(CC)Cc1ccc2c(c1)CN(C(=O)NC1CCCC1)CCO2 as the compound, how does the Potency read?
A: inactive

Q: Which Potency does the source give for O=C(CN1CCNCC1)NC1CCCCC1 here?
A: inconclusive: 1 µM [rising, full curve, poor fit]

Q: For COCCOC1CN(C2CCN(C(=O)c3ccco3)CC2)C12CCCCC2 (stereo not given), which Potency is on record?
A: inactive

Q: With CCCS(=O)(=O)N1CCCCCCNC(=O)[C@@H]2CCC[C@@H]21 as the compound, how does the Potency read?
A: inconclusive: 31.6 µM [cytotoxic, single point]

Q: For O=C(NCCc1ccccc1)c1ccc2nnc(-c3cccc(C(F)(F)F)c3)n2c1, which Potency is on record?
A: inconclusive: 10 µM [cytotoxic, partial curve, poor fit]

Q: Which Potency does the source give for CCCCN(C)c1nnc(NC(=O)Nc2cccc(C(C)=O)c2)s1 here?
A: inconclusive: 10 µM [rising, partial curve, poor fit]

Q: Which Potency does the source give for COc1ccc(-c2cnc3n[nH]c(-c4ccc5c(c4)OCO5)c3n2)cc1 here?
A: inactive

Q: Which Potency does the source give for Cc1cccc(-c2noc([C@@H]3Cc4nc[nH]c4CN3C(=O)COCC(=O)O)n2)c1 here?
A: inactive

Q: With COC1CCN(C(=O)c2cc(Cc3n[nH]c(=O)c4ccccc34)ccc2F)CC1 as the compound, how does the Potency read?
A: inconclusive: 18.9 µM [cytotoxic, single point]

Q: For CC(NCc1ccc2c(c1)nc(NC(=O)c1ccc(-c3cn[nH]c3)s1)n2CC(C)(C)O)C(C)(C)C (stereo not given), which Potency is on record?
A: inconclusive: 2.41 µM [cytotoxic, full curve]

Q: With Cc1cc(OCC(=O)NCC2(N3CCN(C)CC3)CCCCC2)cc(C)c1Cl as the compound, how does the Potency read?
A: inconclusive: 11.2 µM [cytotoxic, partial curve]

Q: Which Potency does the source give for O=C(NCCc1ccc(Cl)cc1)C1CN(c2cccc(Cl)c2)C(=O)N1 (stereo not given) here?
A: inactive and inconclusive: 31.6 µM [cytotoxic, single point]

Q: With O=c1cnc2cnc(OCc3ccccc3)nc2n1Cc1ccc(F)cc1 as the compound, how does the Potency read?
A: inconclusive: 39.8 µM [cytotoxic, single point]

Q: For CC1=C[C@@H](CNCc2ccncc2)[C@H](C(C)C)C[C@H]1Cc1nnc(-c2ccc(C)cc2)o1, which Potency is on record?
A: inconclusive: 35.5 µM [cytotoxic, single point]

Q: With O=C(c1ccc(C(F)(F)F)cc1)N1CCC2(CC1)CC(c1cccnc1)=NO2 as the compound, how does the Potency read?
A: inconclusive: 7.08 µM [cytotoxic, single point]

Q: For COc1ccc(-c2[nH]nc3ncc(C(=O)N4C[C@@H](C)O[C@@H](C)C4)nc23)c(C)c1, which Potency is on record?
A: inactive

Q: For Cc1ccc(-c2noc(COc3ccc(Br)c(C)c3)n2)cc1, which Potency is on record?
A: inconclusive: 1 µM [rising, full curve]

Q: With COCCn1c(=O)n([C@H]2CCCN(C(=O)c3nn(C)c4ccccc34)C2)c2ncccc21 as the compound, how does the Potency read?
A: inactive

Q: For O=C1CC(c2nc3ccccc3n2CCCCOc2ccccc2)CN1c1ccccc1Cl (stereo not given), which Potency is on record?
A: inconclusive: 39.8 µM [cytotoxic, single point]

Q: With O=C(C1CCCN1C(=O)c1ccc(Cl)cc1)N1CCC(c2nc3ncccc3[nH]2)CC1 (stereo not given) as the compound, how does the Potency read?
A: inactive

Q: With CC(Cn1cncn1)NC(=O)c1ccc(S(=O)(=O)NCCO)cc1 (stereo not given) as the compound, how does the Potency read?
A: inactive

Q: Which Potency does the source give for O=c1n(-c2ccc(F)cc2F)nc2n1CCN(Cc1ccc(F)cc1)C2 here?
A: inactive

Q: With Cn1cc(-c2ccncc2)c(-c2ccc(OCc3ccc4ccccc4n3)cc2)n1 as the compound, how does the Potency read?
A: inconclusive: 33.6 µM [cytotoxic, single point]

Q: For O=C(O)Cn1ccc2cc(OCCc3cccc(-c4cncnc4)c3)cnc21, which Potency is on record?
A: inactive

Q: With CN(C)c1ccc(CN2CCNc3cc(-c4ccccc4)ncc3C2)cc1 as the compound, how does the Potency read?
A: inconclusive: 8.91 µM [cytotoxic, partial curve, poor fit]

Q: For CC(O)(C(=O)O)C1CCC2(C)C1CCC1(C)C2CCC2C3(C)CCC(O)C(C)(COC4OC(CO)C(O)C(O)C4O)C3CCC21C (stereo not given), which Potency is on record?
A: inactive

Q: Which Potency does the source give for Cc1ccc(C)c(-c2cc(C(F)(F)F)nn2-c2ccc(S(N)(=O)=O)cc2)c1 here?
A: inconclusive: 29.9 µM [cytotoxic, partial curve, poor fit]

Q: Which Potency does the source give for C#CCNC(=O)[C@@H]1Cc2cn(Cc3ccncc3)c3cccc(c23)[C@H](CC(C)C)N1 here?
A: inconclusive: 31.6 µM [cytotoxic, single point]

Q: Which Potency does the source give for CC(C)(C)c1ccc(NC(=O)O[C@@H]2CO[C@H]3[C@@H]2OC[C@@H]3Nc2nccc(-c3cccc(F)c3)n2)cc1 here?
A: inactive

Q: Which Potency does the source give for COc1ccc2cc(C(=O)NCC(=O)N3CCCCCCNC(=O)CC3c3ccccc3)[nH]c2c1 (stereo not given) here?
A: inconclusive: 39.8 µM [cytotoxic, single point]

Q: Which Potency does the source give for CCOCCCNC(=O)C(c1ccc(OC)cc1)N(Cc1cccs1)C(=O)c1ccc(NC(C)=O)cc1 (stereo not given) here?
A: inconclusive: 31.6 µM [cytotoxic, single point]

Q: With COCCNC(=O)c1ccc2c(c1)N(Cc1cccc(Cl)c1)C(=O)c1ccccc1S2(=O)=O as the compound, how does the Potency read?
A: inconclusive: 7.08 µM [cytotoxic, single point]

Q: With COCCNC(=O)C1COC2(CCN(C(=O)c3ccc(OC)cc3)CC2)N1C(=O)c1cccc(C)c1 (stereo not given) as the compound, how does the Potency read?
A: inconclusive: 28.2 µM [cytotoxic, single point]

Q: With CN(C)CCN(C)C(=O)c1ccc(-c2ncc3cnc(-c4cccc(F)c4)cn23)cc1 as the compound, how does the Potency read?
A: inactive

Q: For Cc1[nH]c2ccccc2c1CCNCc1ccc(/C=C/C(=O)NO)cc1, which Potency is on record?
A: inconclusive: 26.7 µM [cytotoxic, partial curve, poor fit]

Q: For CCNc1ncc2nc(-c3ccccc3)c(=O)n(C[C@H]3CCCO3)c2n1, which Potency is on record?
A: inconclusive: 25.1 µM [rising, partial curve, poor fit]

Q: Which Potency does the source give for COc1ccc(OC)c(CN2CC(Oc3ccccc3C(=O)NCc3ccccc3)C2)c1 here?
A: inconclusive: 39.8 µM [cytotoxic, single point]

Q: For COc1cccc(-c2nc(SCC(=O)Nc3ccc4c(c3)OCO4)c(-c3ccccc3)[nH]2)c1, which Potency is on record?
A: inconclusive: 17.8 µM [cytotoxic, partial curve, poor fit]

Q: With Cc1nn2c(c1-c1ccccc1C(C)C)N(Cc1ccc3c(c1)CCO3)CCC2 as the compound, how does the Potency read?
A: inconclusive: 28.2 µM [cytotoxic, single point]

Q: Which Potency does the source give for O=C(Cn1c(=O)n(-c2ccc(F)cc2)c(=O)c2sc3ccccc3c21)N1CCCC1 here?
A: inconclusive: 5.01 µM [cytotoxic, full curve]

Q: With COc1ccc(C(=O)N2CCC(n3cc(-c4nc(-c5ccccc5)no4)nn3)C2)cc1 (stereo not given) as the compound, how does the Potency read?
A: inactive

Q: Which Potency does the source give for CCOc1ccc(-c2oc3ccccc3c(=O)c2O)cc1OCC here?
A: inconclusive: 12.6 µM [rising, single point]

Q: Which Potency does the source give for CCCS(=O)(=O)c1ncc(Cl)c(C(=O)N(Cc2ccccc2)Cc2ccco2)n1 here?
A: inconclusive: 22.4 µM [cytotoxic, partial curve, poor fit]

Q: For Cc1cc(F)ccc1[C@H]1C[C@@H](N2CCN3C(=O)CC[C@H]3C2)CCN1C(=O)N(C)[C@H](C)c1cc(C(F)(F)F)cc(C(F)(F)F)c1, which Potency is on record?
A: inconclusive: 16.8 µM [cytotoxic, partial curve, poor fit]

Q: Which Potency does the source give for O=C1NCCN2CC3(CCN(C(=O)C4(c5ccccc5)CC4)CC3)CC12 (stereo not given) here?
A: inconclusive: 25.1 µM [cytotoxic, single point]

Q: For COc1ccccc1OCCCn1c(C2CC(=O)N(c3ccccc3Cl)C2)nc2ccccc21 (stereo not given), which Potency is on record?
A: inconclusive: 12.6 µM [cytotoxic, partial curve, poor fit]

Q: Which Potency does the source give for Oc1ccccc1-c1nc(/C=C/c2ccccc2Cl)no1 here?
A: inactive

Q: Which Potency does the source give for OC1(Cc2cc(-c3ccccc3)no2)CCN(c2ncncn2)CC1 here?
A: inconclusive: 35.5 µM [cytotoxic, partial curve, poor fit]

Q: For CC(=O)N1CCN(Cc2cc(F)ccc2Cl)CC(O)C1 (stereo not given), which Potency is on record?
A: inconclusive: 39.8 µM [cytotoxic, single point]

Q: For OCC1(Cc2ccc(F)cc2)CCCN(c2nc3ccccc3s2)C1 (stereo not given), which Potency is on record?
A: inactive

Q: For COc1ccc(Cn2cc(C(=O)c3ccc(OC)cc3)c(=O)c3cc4c(cc32)OCCO4)cc1, which Potency is on record?
A: inconclusive: 10 µM [cytotoxic, partial curve]

Q: For O=C(Nc1ccc(Cl)cc1)N1CCC(CN2CCCC2)CC1, which Potency is on record?
A: inactive

Q: Which Potency does the source give for Cc1ccc([S+](=O)([O-])N2CCCC2C(=O)N2CCC(c3nc4ccncc4[nH]3)CC2)cc1 (stereo not given) here?
A: inactive

Q: For CCCCCn1c(NCc2ccccc2OC)nc2ccccc21, which Potency is on record?
A: inconclusive: 31.6 µM [cytotoxic, single point]

Q: With O=S(=O)(N[C@H]1CO[C@H]2[C@@H]1OC[C@@H]2n1cc(CC2CCCCC2)nn1)c1cccs1 as the compound, how does the Potency read?
A: inconclusive: 8.91 µM [cytotoxic, partial curve, poor fit]

Q: Which Potency does the source give for C[C@@H](NC(=O)c1ccccc1)c1onc(-c2ccc(F)cc2)c1C(=O)O here?
A: inconclusive: 20 µM [rising, partial curve, poor fit]

Q: With O=C(Nc1ccc2c(c1)OCCO2)N1CCc2nn(CC3CC3)c(=O)n2CC1 as the compound, how does the Potency read?
A: inactive

Q: For CC1CCC(NC(=O)C2(c3ccc(NS(C)(=O)=O)cc3)CCCCC2)CC1 (stereo not given), which Potency is on record?
A: inconclusive: 28.2 µM [cytotoxic, partial curve, poor fit]

Q: For CCn1c(CNC(=O)c2ccc(OC)cc2)nnc1SCC(=O)Nc1cccc(C)c1C, which Potency is on record?
A: inconclusive: 2 µM [cytotoxic, full curve, poor fit]

Q: With CCCOC(c1cc2nccc(C(=O)O)c2[nH]1)c1ccccc1Cl (stereo not given) as the compound, how does the Potency read?
A: inactive

Q: For COc1ccc(-c2cc(C(F)F)n3ncc(C(=O)Nc4cc(OC)ccc4OC)c3n2)cc1, which Potency is on record?
A: inconclusive: 31.6 µM [rising, partial curve, poor fit]
